{"source": "PubChem BioAssay (NCI)", "system": "NCI-H322M lung", "assay": "NCI tumour cell line growth inhibition, 48 h", "note": "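Grown in 96-well plates, cells were treated for 48 hours with each compound at five concentrations. Insufficient inhibition: endpoint recorded as highest concentration tested. GI50 marks 50% less growth. TGI: total growth inhibition.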", "data": [{"smiles": "C#CCN(C)CCCOc1ccc(N(C)C(=O)c2cc(C(C)C)c(O)cc2O)cc1Cl", "values": [{"measurement": "GI50", "value": 0.737, "unit": "µM"}, {"measurement": "TGI", "value": 19.1, "unit": "µM"}]}, {"smiles": "COc1cncc(-c2ccc3ncnc(N4CCc5ccc(Cl)cc54)c3c2)c1", "values": [{"measurement": "GI50", "value": 1.85, "unit": "µM"}, {"measurement": "TGI", "value": 10, "unit": "µM"}]}, {"smiles": "CCN(CC)CCOc1ccc(C(=C(C)c2ccccc2)c2ccc(OCCN(CC)CC)cc2)cc1", "values": [{"measurement": "GI50", "value": 4.46, "unit": "µM"}, {"measurement": "TGI", "value": 12.2, "unit": "µM"}]}, {"smiles": "O=C(c1ccc(O)cc1)C1[C@H](c2ccc(Br)cc2)[C@@H](c2ccccc2)NC12C(=O)Nc1ccccc12", "note": "(stereo partly drawn)", "values": [{"measurement": "GI50", "value": 5.26, "unit": "µM"}, {"measurement": "TGI", "value": 10.4, "unit": "µM"}]}]}
